Experimental findings from patent publication US7160888B2, “[1,8]naphthyridin-2-ones and related compounds for the treatment of schizophrenia” (Warner Lambert Company LLC, priority 2003, dated 2007) are described below.

The first experiment concerns the target dopamine D2 receptor (Homo sapiens, UniProt P14416). Kind of experiment: biochemical. As to conditions: D2 Ki (nM), Table 1; 0.4 nM [3H]spiperone, CHO-hD2L membranes.
Sequence of UniProt P14416 (P14416 whole entry): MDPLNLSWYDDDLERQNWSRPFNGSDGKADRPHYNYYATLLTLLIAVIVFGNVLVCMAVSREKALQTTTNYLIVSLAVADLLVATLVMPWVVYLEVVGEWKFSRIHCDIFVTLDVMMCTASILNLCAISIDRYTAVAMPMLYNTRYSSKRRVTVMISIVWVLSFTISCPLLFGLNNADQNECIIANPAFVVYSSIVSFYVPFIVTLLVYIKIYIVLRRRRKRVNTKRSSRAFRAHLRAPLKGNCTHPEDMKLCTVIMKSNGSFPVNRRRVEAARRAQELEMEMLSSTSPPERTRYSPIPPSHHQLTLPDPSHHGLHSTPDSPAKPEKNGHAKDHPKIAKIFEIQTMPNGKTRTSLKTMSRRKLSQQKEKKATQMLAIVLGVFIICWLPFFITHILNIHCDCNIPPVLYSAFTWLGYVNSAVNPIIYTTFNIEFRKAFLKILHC
With `CC1CC(=O)Nc2nc(OCCCCN3CCN(c4cccc(Cl)c4Cl)CC3)ccc21` (single isomer, unassigned) [Example D2a, 7-{4-[4-(2,3-Dichloro-phenyl)-piperazin-1-yl]-butoxy}-4-methyl-3,4-dihydro-1H-[1,8]naphthyridin-2-one], affinity was put at a Ki of 2.9 nM.

For the compound `CC1CC(=O)Nc2nc(OCCCCN3CCN(c4cccc(Cl)c4Cl)CC3)ccc21` (single isomer, unassigned) [Example D2b, 7-{4-[4-(2,3-Dichloro-phenyl)-piperazin-1-yl]-butoxy}-4-methyl-3,4-dihydro-1H-[1,8]naphthyridin-2-one], the Ki came out at 2 nM.

`CC1Cc2ccc(OCCCCN3CCN(c4cccc(Cl)c4Cl)CC3)nc2NC1=O` (single isomer, unassigned) [Example D6a, 7-{4-[4-(2,3-Dichloro-phenyl)-piperazin-1-yl]-butoxy}-3-methyl-3,4-dihydro-1H-[1,8]naphthyridin-2-one] had a Ki of 2.5 nM.

With `O=C1CCc2ccc(OCCCCN3CCN(c4ccc(F)c(Cl)c4Cl)CC3)nc2N1` [Example A8, 7-{4-[4-(2,3-Dichloro-4-fluoro-phenyl)-piperazin-1-yl]-butoxy}-3,4-dihydro-1H-[1,8]naphthyridin-2-one], the Ki was 10 nM.

The compound `O=C1CCc2ccc(OCCCCN3CCN(c4ccc(F)cc4Cl)CC3)nc2N1` [Example A9, 7-{4-[4-(2-Chloro-4-fluoro-phenyl)-piperazin-1-yl]-butoxy}-3,4-dihydro-1H-[1,8]naphthyridin-2-one] had a Ki of 5.5 nM.

`O=C1CCc2ccc(OCCCCN3CCN(c4ccccc4-c4ccccc4)CC3)nc2N1` [Example A11, 7-[4-(4-Biphenyl-2-yl-piperazin-1-yl)-butoxy]-3,4-dihydro-1H-[1,8]naphthyridin-2-one] had a Ki of 6.5 nM.

In the case of `Cc1cc(N2CCN(CCCCOc3ccc4c(n3)NC(=O)CC4)CC2)c(Cl)cc1F` [Example A13, 7-{4-[4-(2-Chloro-4-fluoro-5-methyl-phenyl)-piperazin-1-yl]-butoxy}-3,4-dihydro-1H-[1,8]naphthyridin-2-one], the affinity corresponds to a Ki of 11.4 nM.

The compound `Cc1ccc(Cl)cc1N1CCN(CCCCOc2ccc3c(n2)NC(=O)CC3)CC1` [Example A14, 7-{4-[4-(5-Chloro-2-methyl-phenyl)-piperazin-1-yl]-butoxy}-3,4-dihydro-1H-[1,8]naphthyridin-2-one] displayed a Ki of 5.5 nM.

`Cc1c(F)ccc(N2CCN(CCCCOc3ccc4c(n3)NC(=O)CC4)CC2)c1Cl` [Example A15, 7-{4-[4-(2-Chloro-4-fluoro-3-methyl-phenyl)-piperazin-1-yl]-butoxy}-3,4-dihydro-1H-[1,8]naphthyridin-2-one] displayed a Ki of 4.5 nM.

For the compound `CCc1cccc(N2CCN(CCCCOc3ccc4c(n3)NC(=O)CC4)CC2)c1` [Example A16, 7-{4-[4-(3-Ethyl-phenyl)-piperazin-1-yl]-butoxy}-3,4-dihydro-1H-[1,8]naphthyridin-2-one], the Ki stood at 3.5 nM. This Ki and that of the compound before are within 1.5-fold of each other.

The compound `COc1c(Cl)cccc1N1CCN(CCCCOc2ccc3c(n2)NC(=O)CC3)CC1` [Example A17, 7-{4-[4-(3-Chloro-2-methoxy-phenyl)-piperazin-1-yl]-butoxy}-3,4-dihydro-1H-[1,8]naphthyridin-2-one] yielded a Ki of 1 nM. This Ki is about 3.5-fold lower than that of the compound before.

For `Cc1cccc(N2CCN(CCCCOc3ccc4c(n3)NC(=O)CC4)CC2)c1Oc1ccccc1` [Example A18, 7-{4-[4-(3-Methyl-2-phenoxy-phenyl)-piperazin-1-yl]-butoxy}-3,4-dihydro-1H-[1,8]naphthyridin-2-one], the Ki turned out to be 7.7 nM.

With `COc1cccc(N2CCN(CCCCOc3ccc4c(n3)NC(=O)CC4)CC2)c1OC` [Example A19, 7-{4-[4-(2,3-Dimethoxy-phenyl)-piperazin-1-yl]-butoxy}-3,4-dihydro-1H-[1,8]naphthyridin-2-one], the Ki amounted to 19.5 nM.

As for `CCOc1ccccc1N1CCN(CCCCOc2ccc3c(n2)NC(=O)CC3)CC1` [Example A20, 7-{4-[4-(2-Ethoxy-phenyl)-piperazin-1-yl]-butoxy}-3,4-dihydro-1H-[1,8]naphthyridin-2-one], the affinity, expressed as Ki, was 0.7 nM.

Take `CCOc1cccc(N2CCN(CCCCOc3ccc4c(n3)NC(=O)CC4)CC2)c1Cl` [Example A21, 7-{4-[4-(2-Chloro-3-ethoxy-phenyl)-piperazin-1-yl]-butoxy}-3,4-dihydro-1H-[1,8]naphthyridin-2-one]: the affinity corresponds to a Ki of 6.7 nM.

Consider `COc1cccc(N2CCN(CCCCOc3ccc4c(n3)NC(=O)CC4)CC2)c1Cl` [Example A22, 7-{4-[4-(2-Chloro-3-methoxy-phenyl)-piperazin-1-yl]-butoxy}-3,4-dihydro-1H-[1,8]naphthyridin-2-one], for which the Ki was found to be 4.5 nM. The Ki values of the last two compounds are within 1.5-fold of each other.

Staying with this experiment, now noted: D2 Ki (nM), Table 2; 0.4 nM [3H]spiperone, CHO-hD2L membranes.
`O=C1CCc2ccc(OCCCCN3CCN(c4cccc5[nH]c(=O)oc45)CC3)nc2N1` [Example A1′, 7-{4-[4-(2-Oxo-2,3-dihydro-benzooxazol-7-yl)-piperazin-1-yl]-butoxy}-3,4-dihydro-1H-[1,8]naphthyridin-2-one]: the Ki stood at 0.4 nM.

`O=C1CCc2ccc(OCCCCN3CCN(c4cccc5c4OCC5)CC3)nc2N1` [Example A2′, 7-{4-[4-(2,3-Dihydro-benzofuran-7-yl)-piperazin-1-yl]-butoxy}-3,4-dihydro-1H-[1,8]naphthyridin-2-one] returned an inhibition constant (Ki) of 1.4 nM. This Ki lies about 3.5-fold higher than the previous one.

`CC1(C)Cc2cccc(N3CCN(CCCCOc4ccc5c(n4)NC(=O)CC5)CC3)c2O1` [Example A3′, 7-{4-[4-(2,2-Dimethyl-2,3-dihydro-benzofuran-7-yl)-piperazin-1-yl]-butoxy}-3,4-dihydro-1H-[1,8]naphthyridin-2-one] showed an inhibition constant (Ki) of 1 nM.

Consider `CC1(C)C=Cc2cccc(N3CCN(CCCCOc4ccc5c(n4)NC(=O)CC5)CC3)c2O1` [Example A5′, 7-{4-[4-(2,2-Dimethyl-2H-chromen-8-yl)-piperazin-1-yl]-butoxy}-3,4-dihydro-1H-[1,8]naphthyridin-2-one], for which the Ki came out at 2.2 nM.

Regarding `CC1(C)CCc2cccc(N3CCN(CCCCOc4ccc5c(n4)NC(=O)CC5)CC3)c2O1` [Example A6′, 7-{4-[4-(2,2-Dimethyl-chroman-8-yl)-piperazin-1-yl]-butoxy}-3,4-dihydro-1H-[1,8]naphthyridin-2-one], the Ki stood at 2 nM.

Consider `O=C1CCc2ccc(OCCCCN3CCN(c4cccc5c4OC4(C=C5)CCCC4)CC3)nc2N1` [Example A7′, 7-{4-[4-(Spiro[chromene-2,1′-cyclopentan]-8-yl)-piperazin-1-yl]-butoxy}-3,4-dihydro-1H-[1,8]naphthyridin-2-one], for which the Ki was determined as 4 nM.

Compound `O=C1CCc2ccc(OCCCCN3CCN(c4cccc5c4OC4(CCCC4)CC5)CC3)nc2N1` [Example A8′, 7-{4-[4-(3,4-Dihydrospiro[chromene-2,1′-cyclopentan]-8-yl)-piperazin-1-yl]-butoxy}-3,4-dihydro-1H-[1,8]naphthyridin-2-one] showed an inhibition constant (Ki) of 1.4 nM. Compared with the last compound, the Ki is about 2.9-fold lower.

On to `CC1C=Cc2cccc(N3CCN(CCCCOc4ccc5c(n4)NC(=O)CC5)CC3)c2O1` (stereo not shown) [Example A9′, 7-{4-[4-(2-Methyl-2H-chromen-8-yl)-piperazin-1-yl]-butoxy}-3,4-dihydro-1H-[1,8]naphthyridin-2-one], for which the inhibitory constant (Ki) was 1 nM.

Turning to `CC1CCc2cccc(N3CCN(CCCCOc4ccc5c(n4)NC(=O)CC5)CC3)c2O1` (stereo not shown) [Example A10′, 7-{4-[4-(2-Methyl-chroman-8-yl)-piperazin-1-yl]-butoxy}-3,4-dihydro-1H-[1,8]naphthyridin-2-one], the affinity, expressed as Ki, was 0.4 nM.

`O=C1CCc2ccc(OCCCCN3CCN(c4cccc5c4CCO5)CC3)nc2N1` [Example A11′, 7-{4-[4-(2,3-Dihydro-benzofuran-4-yl)-piperazin-1-yl]-butoxy}-3,4-dihydro-1H-[1,8]naphthyridin-2-one] had a Ki of 3 nM.

Compound `O=C1CCc2ccc(OCCCCN3CCN(c4cccc5c4COC5)CC3)nc2N1` [Example A12′, 7-{4-[4-(1,3-Dihydro-isobenzofuran-4-yl)-piperazin-1-yl]-butoxy}-3,4-dihydro-1H-[1,8]naphthyridin-2-one] returned a Ki of 2.8 nM.

`O=C1CCc2ccc(OCCCCN3CCN(c4cccc5c4CCOC5)CC3)nc2N1` [Example A14′, 7-[4-(4-Isochroman-5-yl-piperazin-1-yl)-butoxy]-3,4-dihydro-1H-[1,8]naphthyridin-2-one] returned a Ki of 3 nM. This Ki and that of the compound before are within 1.5-fold of each other.

`O=C1CCc2ccc(OCCCCN3CCN(c4cccc5c4OCCO5)CC3)nc2N1` [Example A16′, 7-{4-[4-(2,3-Dihydro-benzo[1,4]dioxin-5-yl)-piperazin-1-yl]-butoxy}-3,4-dihydro-1H-[1,8]naphthyridin-2-one] had a Ki of 2.5 nM.

As to `O=C1CCc2ccc(OCCCCN3CCN(c4cccc5c4OCCCO5)CC3)nc2N1` [Example A17′, 7-{4-[4-(3,4-Dihydro-2H-benzo[b][1,4]dioxepin-6-yl)-piperazin-1-yl]-butoxy}-3,4-dihydro-1H-[1,8]naphthyridin-2-one], the inhibitory constant (Ki) turned out to be 1 nM.

For the compound `O=C1CCc2ccc(OCCCCN3CCN(c4cccc5c4OC(F)(F)C(F)(F)O5)CC3)nc2N1` [Example A18′, 7-{4-[4-(2,2,3,3-Tetrafluoro-2,3-dihydro-benzo[1,4]dioxin-5-yl)-piperazin-1-yl]-butoxy}-3,4-dihydro-1H-[1,8]naphthyridin-2-one], the affinity corresponds to a Ki of 1.4 nM.

`O=C1CCc2ccc(OCCCCN3CCN(c4cccc5c4OC(F)(F)O5)CC3)nc2N1` [Example A19′, 7-{4-[4-(2,2-Difluoro-benzo[1,3]dioxol-4-yl)-piperazin-1-yl]-butoxy}-3,4-dihydro-1H-[1,8]naphthyridin-2-one]: the affinity, expressed as Ki, was 1.4 nM.

In turn, `O=C1CCc2ccc(OCCCCN3CCN(c4cccc5c4OCCC5=O)CC3)nc2N1` [Example A20′, 7-{4-[4-(4-Oxo-chroman-8-yl)-piperazin-1-yl]-butoxy}-3,4-dihydro-1H-[1,8]naphthyridin-2-one] gave an inhibition constant Ki of 65.1 nM.

For `CC1(C)COc2c(cccc2N2CCN(CCCCOc3ccc4c(n3)NC(=O)CC4)CC2)C1=O` [Example A21′, 7-{4-[4-(3,3-Dimethyl-4-oxo-chroman-8-yl)-piperazin-1-yl]-butoxy}-3,4-dihydro-1H-[1,8]naphthyridin-2-one], the affinity corresponds to a Ki of 1 nM.

The term Ki denotes the dissociation constant of the complex between target and ligand, obtained from inhibition or displacement.
